Laboratory results taken from the supplement of paper PMC11417369.
The list shows a part of the results.

System: PfHDP1 homeodomain (GST-tagged)
Assay: gcPBM binding intensity (ln(normalized median fluorescence intensity)); higher = stronger DNA binding
Summary of the method: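 An Agilent 4 × 180k array of primer-extended double-stranded 36-bp intergenic genomic probes, with negative controls, was incubated for 1 h with GST-tagged P. falciparum DNA-binding domains expressed in E. coli. Alexa488 anti-GST antibody detected bound protein, scanned at 488 nm. Binding intensity is the highest Masliner-normalised natural-log median intensity across replicate spots of either probe orientation.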

Row | Sequence | gcPBM binding intensity (ln)
1 | TATGATTGTTTACGTTGTACAGCTGAATTGTTCTTA [XGTACX_site8114] | 6.18
2 | TGAAAATAGTTAATTTGTACACAAAAATTAAGAAAA [XGTACX_site5794] | 6.62
3 | AATTAAATAAATGTATGTACATAATAAATATGTATT [XGTACX_site4379] | 6.15
4 | TTTTATTTTATAAAAATAAAAAAAAAATTATTACAA [TGCATGCA_negctrl_site508] | 6.07
5 | TATGAAAATATATATTGTACAGAATCTATAAAAAAT [XGTACX_site8030] | 6.39
6 | AAAGAAATATATACAAAAATATGAACAATTTATTAT [XGTACX_negctrl_site78] | 6.22
7 | TTTTCGATGTTGGTAGGATGTATGGTACACGTAGTA [TGCATGCA_negctrl_site61] | 6.59
8 | GAGTTTACACTCCCTTGTACATATTCATTTTTATTC [XGTACX_site5208] | 7.02
9 | TGAATAAATATATATACACACATATATGTATATATT [CACACA_site1642] | 6.38
10 | TATATATATAATATATGTACATATTAATTATGTATA [XGTACX_site5366] | 7.4
11 | AATAAAAGATCATTTATTCTTTTTTTTCTTTTTAAA [CACACA_negctrl_site1256] | 5.88
12 | TAAATAAATTTATACACACACACACCGATATATATA [CACACA_site4622] | 7.24
13 | GAATGCCTTGAAAATAGTACAATTAAGAAAAAATAC [XGTACX_site8002] | 6.53
14 | AAAATACATAAACGTTCACACATTTAAGATAACGAG [CACACA_site5345] | 6.37
15 | TTTTTTTTTTTTTACACACACAAAATATTATCTGTA [CACACA_site5378] | 6.59
16 | AATGAAATAAAATAAAGTACATATATGTAAAAGTAG [XGTACX_site5650] | 7.44
17 | ATATATATAATATGATGTACATATTTATTTATATAT [XGTACX_site7333] | 6.74
18 | AATTGAAAAGAATGAAGTACACATTTGATGATACAT [XGTACX_site5182] | 6.35
19 | ATATAAAAAAAAGATGAAAAAAAAAATGAAAGAAAG [CACACA_negctrl_site1266] | 6.6
20 | TATATGAAGCTATAGACACACATATAAAAATATAAT [CACACA_site4850] | 6.49
21 | GAATTTATGAACTGTGCATGTAAAAAAAACAACAAA [TGCATGCA_site449] | 8.31
22 | TATAATAATATATATTGTACACACAAAATGGGAAAA [XGTACX_site3911] | 7.17

Row | Sequence | gcPBM binding intensity (ln)
23 | TACATCTGTAATGTGTGTACATATATGTATATATTT [XGTACX_site1805] | 6.7
24 | CATAAACTTTTTAACACACACTTATATATATATATA [CACACA_site4747] | 9.16
25 | AAAAATTCTTTTTCATCTATATGCAGAAAGAAAAAG [CACACA_negctrl_site1201] | 5.9
26 | CTAAATAAAGTTAACACACACATAATATATATATGT [CACACA_site486] | 6.43
27 | TAATTTTTATGAAGAAGTACAAAATCTACTATCATA [XGTACX_site4985] | 5.6
28 | ATAAAAATATGATCAACACACGATTAAATATTCATA [CACACA_site1495] | 6.39
29 | AGAAATACAAAATAAATATAAGAAACAAAATATTTA [CACACA_negctrl_site780] | 6.52
30 | AAAAGGTTATCAATATGTACATATTTTTTTATTTTT [XGTACX_site3277] | 6.4
31 | TGAAAAATAAATAAATGTACATATATATATATATAC [XGTACX_site7310] | 6.72
32 | TATTTCATCATATTGTGTACTTAATTTATATAATTA [XGTACX_site5753] | 6.78
33 | TTTTAATTAAAACACACACACACATATATATATATA [CACACA_site2291] | 9.11
34 | GTATCAAAAGAATACACACACACATACATATATATA [CACACA_site3796] | 6.99
35 | ATTTTAGAATAAATTTTTTACATTAAAAAACTATTT [CACACA_negctrl_site1414] | 5.93
36 | ACTCTCTTATATTAAACACACATATTTATAGGTATA [CACACA_site7302] | 7.05
37 | TGAACATATTAAAATTGTACATATGCACAATATGTA [XGTACX_site6801] | 9.28
38 | AAGGATATAACATACACACACACACGGATATAAATA [CACACA_site7867] | 6.85
39 | CATACAATAAATATGGTGCATTTTATGTAACCGTTT [GTGCAC_site9420] | 9.78
40 | CATCTAAATTGTAGTTGTACACCTTAATCTTATTAC [XGTACX_site7547] | 7.69
41 | TATTTTATCATTTGCACACGCACACCGACATAAAAA [CACACA_site4348] | 10.6
42 | AAAAAAAAAAAAATGTAATTTTTTAATTATTTATAT [GTGCAC_negctrl_site436] | 6.27
43 | CATATATTTTTGTATAGTACTTTTTTTATTCGTTTT [XGTACX_site1860] | 6.61
44 | TAAAAGTTAATATAAACACACAAAAATTAATAAATA [CACACA_site6316] | 6.44

Row | Sequence | gcPBM binding intensity (ln)
45 | AATTTCTATTTTGTGAGTACATACTCCTATTATATA [XGTACX_site3210] | 6.67
46 | ATAATGGAGAAATAAGCATGCATTATATTATAAAAA [TGCATGCA_site325] | 6.89
47 | TGAATATTTCTATATACACACATATAAATATAAATA [CACACA_site7593] | 6.41
48 | TTATCGGTATAATATAGTACATATAGATATATAATA [XGTACX_site1440] | 6.31
49 | TGATAATTTTTTACATGTACAAGTTTGTTTTTGCAT [XGTACX_site125] | 6.52
50 | ATATTACTTCCTAAGTGTACAAGTAAGGAGAAAAAA [XGTACX_site3921] | 6.56
51 | GATAAAATGGATGGATGTACATTATTTCCATATAAT [XGTACX_site7781] | 6.35
52 | AGATGTTTTTATATATGTACTTAAATACACAAATAT [XGTACX_site8250] | 6.5
53 | AAAAAAAAAAAAAACACACACACAAAATAAACAAAC [CACACA_site2720] | 6.86
54 | ATAATACACGATTATTTTCCCTTTATGTAAATATAT [CACACA_negctrl_site1107] | 6.62
55 | TATTTTATCTATTTGTGTACTTATATTTATGCAAAA [XGTACX_site1499] | 7.03
56 | TATATATATAATATTGCACACAAAATTAAAAGTAAA [CACACA_site7889] | 9.61
57 | AAAAAAAAAAAATGTGTGCACATTATTTCAACTTAA | 10
58 | ATAAATAATATATATACACACATATCTATACATATT [CACACA_site487] | 6.8
59 | AAATTATTAAAAAAAAGTACATATATATATATATAT [XGTACX_site8313] | 9.38
60 | TTTTTTTTTTTTTTATGTACGAAAGAAAAGCACATA [XGTACX_site8261] | 6.52
61 | TTTAGATAATTCATTACACACATGTATATTTATATA [CACACA_site7602] | 6.38
62 | TAACGAATTTAAATTTGTACATATATAAATATATAA [XGTACX_site2168] | 6.14
63 | ATCATCTATGTTATTACACACGTTATGTTATTATAA [CACACA_site5502] | 6.73
64 | AAATATTATAGCACCACACACTTATTTTATTTATAT [CACACA_site7133] | 7.04
65 | ACTAAACTTTTATGTACACACATATAACATTAATTT [CACACA_site5276] | 6.98
66 | TACGTAAAAATAGGACGTACTTATTTAGAAACCATA [XGTACX_site2498] | 6.43

Row | Sequence | gcPBM binding intensity (ln)
67 | TTGGTACCTATAGATACACACATATATACCTATATA [CACACA_site5812] | 6.25
68 | TACAAAATGGGGAACACACACATATATATATATATA [CACACA_site3844] | 9.36
69 | TATATTCTTTATAGGTGTACTTAATAAATAAAAAAT [XGTACX_site5378] | 6.43
70 | TATCTAGTTACTCCTTGTACATAATAAATGATTTTT [XGTACX_site5674] | 6.64
71 | TATATATATGTGTTTACACACAATAATGAATTAAAA [CACACA_site4659] | 6.62
72 | TATGAACATAAATTTGCACACTGGATATAATATATA [CACACA_site2155] | 9.6
73 | AGAAAGAAAGAATACACACACACATATATAAATATC [CACACA_site7716] | 7
74 | ATTATCAATATGAAGGTGCATTTAAATAATATTTAC | 9.62
75 | ATATATTTATATATATGTACTTAAAACATTTCGATG [XGTACX_site328] | 6.25
76 | TTTTTATTTTTTTAGTATACGTACTAGGTTTGTTCT [XGTACX_site645] | 6.54
77 | AATGTAATATAAATATGTACATAATATATATAATTA [XGTACX_site4762] | 6.4
78 | ATATATATATTTTTATGAGGCATAAGTAATATTTTT [TGCATGCA_negctrl_site317] | 7.76
79 | AACAAGAAAAAAAAAAAAAAAAAAAAAAAATATTTT [XGTACX_negctrl_site428] | 5.78
80 | ATTTATATTTATGATACACACACGTATATTCACATA [CACACA_site460] | 6.83
81 | ATTTGTTTATAGGCCATAAAATATTTAATTCATTTG [CACACA_negctrl_site1824] | 6.34
82 | TTTTTCATAAATATATGTACATATATTTTATATAAC [XGTACX_site3402] | 6.76
83 | AGTATTATATTTGTATGTACGTAGTAATATATAAAA [XGTACX_site528] | 6.55
84 | AATGAAATATGGATGGGTACACATTTGATTTTATTA [XGTACX_site6155] | 6.31
85 | TATGAAAAAAAAAATACACACACGAGTTGTTATACA [CACACA_site3188] | 6.37
86 | TGTATGTATAGAAACACACATACATATATATAATAT [CACACA_site1405] | 6.41
87 | ATATATATAAACATATGTACACATATATATAATACA [XGTACX_site1848] | 6.76
88 | ATATAAAATATTAGTAGTACCATTAACAGTATTGTT [XGTACX_site5912] | 6.13
